{"source": "the supplement of paper PMC4604168 (melanoma cell lines)", "note": "The list shows a part of the results. Many values rest on one well or one pass, so single values are uncertain.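 Further: cell number obtained by counting DAPI-stained nuclei in high-throughput microscope images with image analysis software, screen run in 1,536-well plates.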", "data": [{"tested_on": "A375", "assay": "cell count relative to DMSO control; higher = more viable cells", "settings": "library dose: low library concentration; 72 h", "units": {"cell count": "%"}, "values": [{"smiles": "O=C(/C=C/c1cccnc1)NCCCCC1CCN(C(=O)c2ccccc2)CC1", "note": "+ Cn1cncc1[C@@](N)(c1ccc(Cl)cc1)c1ccc2c(c1)c(-c1cccc(Cl)c1)cc(=O)n2C [tipifarnib] (first compound 0.01 µM, partner dose 0.01 µM)", "cell count": 81.8}, {"smiles": "CC1(C)CCC(c2ccc(Cl)cc2)=C(CN2CCN(c3ccc(C(=O)NS(=O)(=O)c4ccc(N[C@H](CCN5CCOCC5)CSc5ccccc5)c(S(=O)(=O)C(F)(F)F)c4)cc3)CC2)C1", "note": "+ NC(=O)c1ccc(N(C(N)=O)c2c(F)cccc2F)nc1-c1ccc(F)cc1F [VX702] (first compound 0.4 µM, partner dose 0.4 µM)", "cell count": 59}, {"smiles": "O=C(/C=C/c1cccnc1)NCCCCC1CCN(C(=O)c2ccccc2)CC1", "note": "+ Cc1ccc(NC(=O)c2cccc(N(C)C)c2)cc1NC(=O)c1ccc(O)cc1 [ZM336372] (first compound 0.01 µM, partner dose 2 µM)", "cell count": 108}, {"smiles": "O=C(/C=C/c1cccnc1)NCCCCC1CCN(C(=O)c2ccccc2)CC1", "note": "+ Cc1cc(Nc2cc(N3CCN(C)CC3)nc(/C=C/c3ccccc3)n2)n[nH]1 [ENMD2076] (first compound 0.01 µM, partner dose 0.04 µM)", "cell count": 87}, {"smiles": "Cc1ccc(Nc2nccc(N(C)c3ccc4c(C)n(C)nc4c3)n2)cc1S(N)(=O)=O", "note": "[Pazopanib] + C[C@@H](Oc1cc(-c2cnn(C3CCNCC3)c2)cnc1N)c1c(Cl)ccc(F)c1Cl [Crizotinib] (first compound 0.4 µM, partner dose 0.2 µM)", "cell count": 81.2}, {"smiles": "CC1(C)CCC(c2ccc(Cl)cc2)=C(CN2CCN(c3ccc(C(=O)NS(=O)(=O)c4ccc(N[C@H](CCN5CCOCC5)CSc5ccccc5)c(S(=O)(=O)C(F)(F)F)c4)cc3)CC2)C1", "note": "+ Cc1cc(N2CCOCC2)cc2[nH]c(-c3c(NC[C@@H](O)c4cccc(Cl)c4)cc[nH]c3=O)nc12 [BMS536924] (first compound 0.4 µM, partner dose 0.2 µM)", "cell count": 69.7}]}, {"tested_on": "C32", "assay": "cell count relative to DMSO control; melanoma cells; higher = more viable cells", "settings": "library dose: low library concentration; 72 h", "units": {"cell count": "%"}, "values": [{"smiles": "O=C(/C=C/c1cccnc1)NCCCCC1CCN(C(=O)c2ccccc2)CC1", "note": "+ COc1cc2ncnc(Nc3ccc(Oc4ccccc4)cc3)c2cc1OC [SrcI1] (first compound 0.01 µM, partner dose 2 µM)", "cell count": 123}, {"smiles": "O=C(/C=C/c1cccnc1)NCCCCC1CCN(C(=O)c2ccccc2)CC1", "note": "+ O=S(=O)(c1ccccc1)N(CC(F)(F)F)c1ccc(C(O)(C(F)(F)F)C(F)(F)F)cc1 [T0901317] (first compound 0.01 µM, partner dose 1.4 µM)", "cell count": 75}, {"smiles": "CC1(C)CCC(c2ccc(Cl)cc2)=C(CN2CCN(c3ccc(C(=O)NS(=O)(=O)c4ccc(N[C@H](CCN5CCOCC5)CSc5ccccc5)c(S(=O)(=O)C(F)(F)F)c4)cc3)CC2)C1", "note": "+ COc1cc(N2CCC(N3CCN(C)CC3)CC2)ccc1Nc1ncc(Cl)c(Nc2ccccc2S(=O)(=O)C(C)C)n1 [NVP-TAE684] (first compound 0.4 µM, partner dose 0.08 µM)", "cell count": 43.8}, {"smiles": "Cc1ccc(Nc2nccc(N(C)c3ccc4c(C)n(C)nc4c3)n2)cc1S(N)(=O)=O", "note": "[Pazopanib] + CCN(CC)CCCCNc1ncc2cc(-c3cc(OC)cc(OC)c3)c(NC(=O)NC(C)(C)C)nc2n1 [PD173074] (first compound 0.4 µM, partner dose 0.1 µM)", "cell count": 108}, {"smiles": "CC1(C)CCC(c2ccc(Cl)cc2)=C(CN2CCN(c3ccc(C(=O)NS(=O)(=O)c4ccc(N[C@H](CCN5CCOCC5)CSc5ccccc5)c(S(=O)(=O)C(F)(F)F)c4)cc3)CC2)C1", "note": "+ O=C(Nc1ccccc1)c1cc([N+](=O)[O-])ccc1Cl [GW9662] (first compound 0.4 µM, partner dose 2 µM)", "cell count": 33}, {"smiles": "O=C(/C=C/c1cccnc1)NCCCCC1CCN(C(=O)c2ccccc2)CC1", "note": "+ c1cc(-c2cnn3cc(-c4ccc(OCCN5CCCCC5)cc4)cnc23)ccn1 [Dorsomorphin] (first compound 0.01 µM, partner dose 0.4 µM)", "cell count": 99.7}, {"smiles": "Cc1ccc(Nc2nccc(N(C)c3ccc4c(C)n(C)nc4c3)n2)cc1S(N)(=O)=O", "note": "[Pazopanib] + CCCCCCCCCCCC1=C(O)C(=O)C=C(O)C1=O [Embelin] (first compound 0.4 µM, partner dose 1.2 µM)", "cell count": 98.5}]}]}
